Data: PubChem BioAssay AID1794842 (National Center for Advancing Translational Sciences (NCATS), 2023)
Screen size: about 2,800 compounds; fewer than 10 were called active. The call rests on the fitted dose curve; in most records, active means well fitted curve in the direction sought with a large enough effect; inconclusive means small, poorly fitted or top-dose-only effect, or another doubt; inactive means no such curve, though single readings can be large or run the other way. The list shows a part of the results.

Biological target: Metallo-beta-lactamase type 2 (Klebsiella pneumoniae) (UniProt C7C422)
Chain of UniProt C7C422 (C7C422 whole entry, looked up): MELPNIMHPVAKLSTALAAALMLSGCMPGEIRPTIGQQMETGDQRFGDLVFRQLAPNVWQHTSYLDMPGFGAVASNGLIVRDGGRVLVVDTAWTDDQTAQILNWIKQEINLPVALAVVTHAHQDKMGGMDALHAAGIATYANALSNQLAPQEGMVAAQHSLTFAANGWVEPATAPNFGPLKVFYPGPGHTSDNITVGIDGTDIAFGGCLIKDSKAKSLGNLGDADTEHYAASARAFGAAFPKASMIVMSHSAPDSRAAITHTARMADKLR
Assay: qHTS to identify inhibitors of the New Delhi Metallo-beta-lactamase (NDM): Meropenem screen against the machine-based learning selections. Further: % of control where 0% means no effect.
Conditions: Purified NDM-1, meropenem hydrolysis, absorbance 300 nm; at 38.4 µM (top of the series) unless noted
Procedure, shortened: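 NDM-1 (2 nM final) in 50 mM HEPES pH 7.0, 1 uM Zn2SO4, 0.01% Tween20 was preincubated with compounds for >30 min. Nitrocefin (16.7 uM final) was read at 485 nm after 15 min, and meropenem (50 uM final) at 300 nm after 30 min.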

Activity change, negative = inhibition, inactive:
Cn1c([C@H]2CCN(C(=O)COc3ccccc3)C2)nc2ccccc21 3.96% [at 57.5 µM]
Cc1nccnc1CN1CCC2(CC1)CCN(Cc1ncc[nH]1)CC2CO (stereo not given) 3.76%
O=C1Nc2ccc(-c3ccc4c(c3)OCO4)cc2C(=O)N2CCN(C(=O)C3CCCC3)C[C@@H]12 0.744%
COc1ccc2[nH]c3c(c2c1)CCN(C)C31CCN(C(=O)c2ccc3ncccc3c2)CC1 0.291%
O=C(NC[C@H]1O[C@H](Cc2cc(-c3ccc(F)cc3)on2)CC[C@@H]1O)c1ccncc1 0.934% [at 57.5 µM]
CC(=O)N1CCN([C@H]2[C@@H]3OC[C@@H](O3)[C@@H](NCc3cnc4ccccc4c3)[C@@H]2O)CC1 0.926% [at 57.5 µM]
CNC(=O)[C@@H]1C[C@@H](n2cc(CNC(=O)Cc3ccccc3)nn2)CN1 48.5%
O=C(COc1ccccc1)N1CCOC[C@H](Oc2ccccc2)C1 0.0193% [at 57.5 µM]
CCc1cc(=O)n(CC(=O)Nc2ccc(C(C)C)cc2)c(N2CCOCC2)n1 2.79%
O=C(c1ccc(Oc2ccccc2)cc1)N1CCNc2cnc(Nc3cccnc3)nc2C1 3.69%
c1cc(-c2n[nH]c(CNC3CCC4(CCNCC4)CC3)n2)ccn1 33.1%
Cc1ccc2nc([C@H]3CCN(C4CCC4)C3)[nH]c2c1 3.27% [at 76.7 µM]
O=C(Nc1ccccc1)c1ccc(-c2cccc3c2CCNC3)o1 7.12%
O=C(NC(C(=O)N1CCCCC1)C1CCN(C(=O)CCc2ccccc2)CC1)c1cccs1 (stereo not given) 2.77%
c1cncc(CN2CC[C@H](c3nc4ccccc4[nH]3)C2)c1 -2.04% [at 76.7 µM]
c1ccc(-c2[nH]nc3ncc(-c4cn[nH]c4)nc23)cc1 0.186% [at 76.7 µM]
CCN(CC)C(=O)[C@@H]1CCC[C@@H](NC(=O)c2cncnc2)CN(C)C(=O)C1 1.04% [at 57.5 µM]
O=C(NCCc1ccccn1)c1nc(-c2ccccc2)cc2[nH]ccc12 2.84% [at 57.5 µM]
NCCN1C(=O)CC[C@H]2CN(C(=O)C3(c4ccccc4)CC3)CC[C@H]21 13.1%
O=C(NCCc1cnc[nH]1)c1nc(-c2ccccc2)cc2[nH]ccc12 9.05% [at 57.5 µM]
Cc1noc2c(-c3cccnc3)cc(-c3cccs3)nc12 5.01% [at 57.5 µM]
c1csc(CN2Cc3[nH]cnc3C[C@H]2c2nc(-c3ccc4c(c3)OCO4)no2)c1 13.3% [at 57.5 µM]
O=C(C[C@@H]1CCNC[C@@H]1Cc1cc(CC2CCCCC2)on1)NCc1ccco1 -4.51% [at 57.5 µM]
Cc1ccccc1-c1cnc2[nH]cc(CC(=O)NC3CC3)c2c1 -0.864% [at 57.5 µM]
COc1ccc(S(=O)(=O)N2CC[C@H](NC(=O)c3ccncc3)C[C@H]2C(=O)N[C@@H](CC2CCCCC2)C(N)=O)cc1 1.02%
O=C(O)[C@H]1C[C@H](C(=O)NCc2ccccn2)CN(C(=O)CC2CCCC2)C1 0.78%
CCc1ncc(C(=O)N2CCN(c3ccc(Cl)c(Cl)c3)CC2)cn1 1.67%
Nc1ccc(-c2ccc(OCCn3ccnc3)cc2)cn1 9.17%
COc1ccccc1-c1ccc2ncc(Nc3cccc(O)c3)n2n1 17.8% [at 57.5 µM]
CC(C)NC(=O)N[C@H]1CCN2C(=O)c3cc(-c4ccccc4)ccc3NC(=O)[C@H]12 -3.67% [at 57.5 µM]
O=C(Cc1cccc(F)c1)NCc1nnc2ccc(-c3ccc(Cl)cc3)nn12 0.305%
Oc1ccccc1CN1CCNc2cc(Nc3cccnc3)ncc2C1 9.15% [at 57.5 µM]
O=C(NC1CCN(c2cc(-c3cccs3)[nH]n2)C1)c1cccc(OC(F)(F)F)c1 (stereo not given) 1.45%
CCO[C@H]1CN(C(=O)CCCc2nc(-c3ccccc3OC)no2)C[C@@H]1O 3.8%
Cc1cc(S(=O)(=O)NCC2CCOCC2)ccc1F -4.53%
O=C(CCc1ccc2c(c1)OCO2)N[C@H](c1cccs1)C1CC(O)C1 (stereo not given in full) -0.11%
CC1=C[C@@H](CO)[C@H](C(C)C)C[C@H]1Cc1nnc(-c2ccc(N(C)C)cc2)o1 12.8% [at 57.5 µM]
Cc1cccc2c1nc1n2[C@@H](CNC2CCCCC2)COC1 -2.31% [at 57.5 µM]
C[S+](=O)([O-])c1cccc(NC(=O)Cc2c[nH]c3ncc(-c4cccnc4)cc23)c1 13.5% [at 57.5 µM]
CCc1nc2c(c(-c3ccc(Cl)cc3)n1)CCN(Cc1ccc(C#N)cc1)CC2 -0.038%
Cc1ncsc1C1N(C2CCN(Cc3cn(C)c4ccccc34)CC2)C(=O)C12CCCC2 (stereo not given) 1.18%
Cc1cccc(O[C@H]2COCCN(C(=O)c3ccc(C(F)(F)F)cc3)C2)n1 -2.61% [at 57.5 µM]
Cc1cc(OCCN2CCOCC2)c(C)c2c1CC[C@@H]([C@H](C)C(=O)NC(C)(C)C)C2 1.61% [at 57.5 µM]
Cc1cc(C[C@@H]2COC[C@@H]2NC(=O)CCCn2cnc3ccccc3c2=O)on1 -0.884%
Cc1cn(CC(=O)NC2CCOC3(CCOCC3)C2)c(=O)[nH]c1=O (stereo not given) -0.851%
Cc1cc(C)c(CNC(=O)c2nc(-c3ccccc3)cc3[nH]ccc23)c(=O)[nH]1 3.74% [at 57.5 µM]
COc1cc(C(=O)N2C[C@@H](C)[C@@](C)(O)C2)ccn1 1.44%
C[C@H]1[C@@H]2[C@@H](O)C([C@H](C)C(=O)N(C)CCC#N)CC[C@@]2(C)CC[C@@H]1NS(C)(=O)=O (stereo not given in full) 0.164% [at 57.5 µM]
Oc1ccccc1CN1CCNc2cc(-c3ccccc3)ncc2C1 2.68% [at 57.5 µM]
Cc1ccsc1[C@@H]1CCN(Cc2cccn2-c2cccnc2)C[C@H]1O 0.257%
COCC(=O)N1CC[C@@H](CC(=O)O)[C@@H](CC2=NCCc3cc(OC)ccc32)C1 14.6% [at 57.5 µM]
O=C(CCc1cccnc1)N1CCCC(CCc2cccc(F)c2)C1 (stereo not given) -0.812%
O=C(NCc1cccc(Cl)c1)c1cc2c(s1)CCN(C(=O)c1ccccc1)C2 3.29%
NC(=O)CN1CCC(c2nc(-c3ccc4nc[nH]c4c3)no2)CC1 1.59%
NC(=O)c1cccc(-c2ccc3c(n2)CN(Cc2ccc(F)cc2)C(=O)CO3)c1 -0.257% [at 57.5 µM]
COc1ccc(-c2noc([C@@H]3Cc4nc[nH]c4CN3Cc3ccc(NC(C)=O)cc3)n2)cc1 10.7%
N#Cc1cccc(C(=O)Nc2ccc([C@H]3OCC(=O)N(C4CCOCC4)[C@@H]3CO)cc2)c1 1.47%
CC(C)C[C@@H](NC(=O)C1=C[C@@H](NC(=O)c2ccco2)[C@@H](O)[C@H](O)C1)C(N)=O 4.55% [at 57.5 µM]
CC(C)NC(=O)[C@@H]1C[C@H](N)CN1C(=O)c1ccc(-n2cnnn2)cc1 -0.07%
COc1ccc(S(=O)(=O)N2C[C@@H](F)[C@@H](OCc3nc4ccccc4o3)C2)cc1 1.3% [at 57.5 µM]
CCOC(=O)C1=C(C)N=C2SC=C(CC(=O)N3CCCCC3)N2C1c1cccc(OC)c1 (stereo not given) 2.27%
N#Cc1cccc(NC(=O)O[C@@H]2CO[C@H]3[C@@H]2OC[C@@H]3n2nnnc2-c2ccc(-c3ccccc3)cc2)c1 7.33%
C#CCNC(=O)[C@@H]1Cc2cn(Cc3cc(C)on3)c3cccc(c23)[C@H](CC(C)C)N1 3.45% [at 57.5 µM]
O=C(Nc1ccccc1)O[C@@H]1CO[C@H]2[C@@H]1OC[C@@H]2NC(=O)c1ccc(C(F)(F)F)cc1 2.28%
CC(C)CNC(=O)c1ccnc(-c2nnc3ccc(Nc4ccccc4)nn23)c1 5.19% [at 57.5 µM]
Cc1ccc(C2(O)CCN(CC(c3ccccc3)c3ccccc3)CC2)nc1 -0.731%
O=C(NC1CCCCC1)[C@H]1O[C@H](CCN2CCN(Cc3ccccc3)CC2)CC[C@@H]1O -2.78% [at 57.5 µM]
CC(=O)Nc1ccc(C(O)[C@H]2COCC(=O)N2Cc2ccccc2F)cc1 (stereo not given in full) 0.957% [at 57.5 µM]
O[C@@H]1C[C@@H](c2nc(Cc3ccccc3)no2)N(Cc2cc3ccccc3o2)C1 6.85% [at 57.5 µM]
O=C(COc1ccccc1)N1CCNc2cnc(Nc3cccc(F)c3)nc2C1 6.97% [at 57.5 µM]
O=C(NC[C@H]1Cn2c(-c3ccccc3)cnc2CO1)C1CCOCC1 4.09% [at 57.5 µM]
O=C1N[C@@H]2CCN(S(=O)(=O)c3cccc(F)c3)[C@@H]2C(=O)N1c1ccc(F)cc1 -0.0746% [at 57.5 µM]
CC1(C(=O)NCCCn2ccnc2)COCc2cnc(Nc3ccccc3)nc21 (stereo not given) 0.432% [at 57.5 µM]
COCc1ccc(C(=O)N[C@@H]2COCC[C@@H]2OCc2c(C)noc2C)o1 -0.566%
COc1ccc(CN2CCNc3cnc(Nc4ccccc4)cc3C2)cn1 15% [at 57.5 µM]
